# Assay results reported in the supplement of paper PMC8728848.
# Some of the results follow.
# Tests used:
# Test in all cases: glycan array binding signal (z-score within array); higher = stronger binding
# Details in all cases: glycan notation: IUPAC condensed, linker removed
# [1] = target: Gal(b1-4)GlcNAc(b1-3)Gal(b1-4)GlcNAc(b1-3)Gal(b1-4)GlcNAc(b1-3)Gal(b1-4)GlcNAc(b1-2)Man(a1-3)[Gal(b1-4)GlcNAc(b1-3)Gal(b1-4)GlcNAc(b1-3)Gal(b1-4)GlcNAc(b1-3)Gal(b1-4)GlcNAc(b1-2)Man(a1-6)]Man(b1-4)GlcNAc(b1-4)[Fuc(a1-6)]GlcNAc
# Procedure, shortened: (§1)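 Columns mapping to the same glycan were averaged after glycan names were converted to IUPAC-condensed notation. The data come from 3228 arrays in the Consortium for Functional Glycomics database, limited to those with an available protein sequence. Binding is reported as a within-array Z-score averaged across arrays of one protein sequence and across linkers.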
# [2] = target: Gal(b1-4)GlcNAc(b1-3)Gal(b1-4)GlcNAc(b1-3)Gal(b1-4)GlcNAc(b1-3)Gal(b1-4)GlcNAc(b1-2)[Gal(b1-4)GlcNAc(b1-3)Gal(b1-4)GlcNAc(b1-3)Gal(b1-4)GlcNAc(b1-3)Gal(b1-4)GlcNAc(b1-6)]Man(a1-6)[Gal(b1-4)GlcNAc(b1-3)Gal(b1-4)GlcNAc(b1-3)Gal(b1-4)GlcNAc(b1-3)Gal(b1-4)GlcNAc(b1-2)Man(a1-3)]Man(b1-4)GlcNAc(b1-4)[Fuc(a1-6)]GlcNAc
# Procedure, shortened: as §1
# [3] = target: Gal(b1-4)GlcNAc(b1-3)Gal(b1-4)GlcNAc(b1-3)Gal(b1-4)GlcNAc(b1-3)Gal(b1-4)GlcNAc(b1-3)Gal(b1-4)GlcNAc(b1-2)Man(a1-3)[Gal(b1-4)GlcNAc(b1-3)Gal(b1-4)GlcNAc(b1-3)Gal(b1-4)GlcNAc(b1-3)Gal(b1-4)GlcNAc(b1-3)Gal(b1-4)GlcNAc(b1-2)Man(a1-6)]Man(b1-4)GlcNAc(b1-4)GlcNAc
# Procedure, shortened: as §1
# [4] = target: Gal(b1-4)GlcNAc(b1-3)Gal(b1-4)GlcNAc(b1-3)Gal(b1-4)GlcNAc(b1-3)Gal(b1-4)GlcNAc(b1-3)Gal(b1-4)GlcNAc(b1-2)Man(a1-3)[Gal(b1-4)GlcNAc(b1-3)Gal(b1-4)GlcNAc(b1-3)Gal(b1-4)GlcNAc(b1-3)Gal(b1-4)GlcNAc(b1-3)Gal(b1-4)GlcNAc(b1-2)Man(a1-6)]Man(b1-4)GlcNAc(b1-4)[Fuc(a1-6)]GlcNAc
# Procedure, shortened: as §1
# [5] = target: Gal(b1-4)GlcNAc(b1-3)Gal(b1-4)GlcNAc(b1-3)Gal(b1-4)GlcNAc(b1-3)Gal(b1-4)GlcNAc(b1-3)Gal(b1-4)GlcNAc(b1-2)[Gal(b1-4)GlcNAc(b1-3)Gal(b1-4)GlcNAc(b1-3)Gal(b1-4)GlcNAc(b1-3)Gal(b1-4)GlcNAc(b1-3)Gal(b1-4)GlcNAc(b1-6)]Man(a1-6)[Gal(b1-4)GlcNAc(b1-3)Gal(b1-4)GlcNAc(b1-3)Gal(b1-4)GlcNAc(b1-3)Gal(b1-4)GlcNAc(b1-3)Gal(b1-4)GlcNAc(b1-2)Man(a1-3)]Man(b1-4)GlcNAc(b1-4)[Fuc(a1-6)]GlcNAc
# Procedure, shortened: as §1
# [6] = target: Gal(b1-4)GlcNAc(b1-3)Gal(b1-4)GlcNAc(b1-3)Gal(b1-4)GlcNAc(b1-3)Gal(b1-4)GlcNAc(b1-3)Gal(b1-4)GlcNAc(b1-3)Gal(b1-4)GlcNAc(b1-2)Man(a1-3)[Gal(b1-4)GlcNAc(b1-3)Gal(b1-4)GlcNAc(b1-3)Gal(b1-4)GlcNAc(b1-3)Gal(b1-4)GlcNAc(b1-3)Gal(b1-4)GlcNAc(b1-3)Gal(b1-4)GlcNAc(b1-2)Man(a1-6)]Man(b1-4)GlcNAc(b1-4)GlcNAc
# Procedure, shortened: as §1
# [7] = target: Gal(b1-4)GlcNAc(b1-3)Gal(b1-4)GlcNAc(b1-3)GalNAc
# Procedure, shortened: as §1
# [8] = target: Gal(b1-4)GlcNAc(b1-3)Gal(b1-4)GlcNAc(b1-3)[Gal(b1-4)GlcNAc(b1-3)Gal(b1-4)GlcNAc(b1-6)]GalNAc
# Procedure, shortened: as §1
# [9] = target: Gal(b1-4)GlcNAc(b1-3)Gal(b1-4)GlcNAc(b1-6)[Gal(b1-3)]GalNAc
# Procedure, shortened: as §1
# [10] = target: Gal(b1-4)GlcNAc(b1-3)Gal(b1-4)[Fuc(a1-3)]GlcNAc(b1-3)Gal(b1-4)[Fuc(a1-3)]GlcNAc
# Procedure, shortened: as §1
# [11] = target: Gal(b1-4)GlcNAc(b1-3)GalNAc
# Procedure, shortened: as §1
# [12] = target: Gal(b1-4)GlcNAc(b1-3)[Fuc(a1-3)GlcNAc(b1-6)]Gal(b1-4)Glc
# Procedure, shortened: as §1
# [13] = target: Gal(b1-4)GlcNAc(b1-3)[Gal(b1-4)GlcNAc(b1-6)]Gal(b1-4)GlcNAc
# Procedure, shortened: as §1
# [14] = target: Gal(b1-4)GlcNAc(b1-3)[GlcNAc(b1-6)]Gal(b1-4)GlcNAc
# Procedure, shortened: as §1
# [15] = target: Gal(b1-4)GlcNAc(b1-6)Gal(b1-4)GlcNAc
# Procedure, shortened: as §1
# [16] = target: Gal(b1-4)GlcNAc(b1-6)GalNAc
# Procedure, shortened: as §1
# [17] = target: Gal(b1-4)GlcNAc(b1-6)[Gal(b1-3)]GalNAc
# Procedure, shortened: as §1
# [18] = target: Gal(b1-4)GlcNAc(b1-6)[Gal(b1-4)GlcNAc(b1-3)]GalNAc
# Procedure, shortened: as §1
# Gal(b1-4)GlcNAc6P = target: Gal(b1-4)GlcNAc6P
# Procedure, shortened: as §1
# Gal(b1-6)Gal = target: Gal(b1-6)Gal
# Procedure, shortened: as §1
# Gal3S(b1-3)GalNAc = target: Gal3S(b1-3)GalNAc
# Procedure, shortened: as §1
# Gal3S(b1-3)GlcNAc = target: Gal3S(b1-3)GlcNAc
# Procedure, shortened: as §1
# [19] = target: Gal3S(b1-3)[Fuc(a1-4)]GlcNAc
# Procedure, shortened: as §1
# Gal3S(b1-4)Glc = target: Gal3S(b1-4)Glc
# Procedure, shortened: as §1
# Gal3S(b1-4)Glc6S = target: Gal3S(b1-4)Glc6S
# Procedure, shortened: as §1
# Gal3S(b1-4)GlcNAc = target: Gal3S(b1-4)GlcNAc
# Procedure, shortened: as §1
# [20] = target: Gal3S(b1-4)[Fuc(a1-3)]Glc6S
# Procedure, shortened: as §1
# [21] = target: Gal3S(b1-4)[Fuc(a1-3)]GlcNAc
# Procedure, shortened: as §1
# [22] = target: Gal3S(b1-4)[Fuc(a1-3)]GlcNAc6S
# Procedure, shortened: as §1
# Gal3S4S(b1-4)GlcNAc = target: Gal3S4S(b1-4)GlcNAc
# Procedure, shortened: as §1
# Gal3S6S(b1-4)GlcNAc = target: Gal3S6S(b1-4)GlcNAc
# Procedure, shortened: as §1
# Gal3S6S(b1-4)GlcNAc6S = target: Gal3S6S(b1-4)GlcNAc6S
# Procedure, shortened: as §1
# Gal4S(b1-4)GlcNAc = target: Gal4S(b1-4)GlcNAc
# Procedure, shortened: as §1
# Gal4S6S(b1-4)GlcNAc = target: Gal4S6S(b1-4)GlcNAc
# Procedure, shortened: as §1
# Gal6P(b1-4)GlcNAc = target: Gal6P(b1-4)GlcNAc
# Procedure, shortened: as §1
# Gal6S(b1-3)GlcNAc = target: Gal6S(b1-3)GlcNAc
# Procedure, shortened: as §1
# Gal6S(b1-3)GlcNAc6S = target: Gal6S(b1-3)GlcNAc6S
# Procedure, shortened: as §1
# Gal6S(b1-4)Glc = target: Gal6S(b1-4)Glc
# Procedure, shortened: as §1
binder,measurement,setting,value
SP16664D-bth-476-27-476 (Bacteroides thetaiotaomicron) (protein) DDLEVGKNIDESAYSGIYENNAYLRDGKSNLVSKVVELHGETYATTVKMGLSKTPNTATSAKVKIDAAYLETYNKAHNTDFALYPQDLVTFANEGILTVNANTKSAEVEMTIRAGEGLQEDKTYAIPVAISDQSSDITIKDEDAKHCIYLVKDMRNAGDAYKGEGVMQGYLFFEVNDVNPLNTLSFQLENGKLLWDVVVLFAANINYDAEAGRPRVQCNPNVQYLLDNNETLLQPLRRRGVKVLLGLLGNHDITGLAQLSEQGAKDFAREVAQYCKAYNLDGVNYDDEYSNSPDLSNPSLTNPSTAAAARLCYETKQAMPDKLVTVFDWGQMYGVATVDGVDAKEWIDIVVANYGSAAYPIGQMTKKQCSGISMEFNLGGGGSLSASKAQSMIDGGYGWFMGFAPSPAKYGSVFSRLQGGGEVLYGSNVAAPTIFYKKNDPTPYKYPDDL,glycan array binding signal (z-score),[1],0.161
same,glycan array binding signal (z-score),[2],0.02
same,glycan array binding signal (z-score),[3],0.13
same,glycan array binding signal (z-score),[4],20
same,glycan array binding signal (z-score),[5],0.553
same,glycan array binding signal (z-score),[6],-0.028
same,glycan array binding signal (z-score),[7],-0.091
same,glycan array binding signal (z-score),[8],-0.045
same,glycan array binding signal (z-score),[9],-0.029
same,glycan array binding signal (z-score),[10],-0.138
same,glycan array binding signal (z-score),[11],0.125
same,glycan array binding signal (z-score),[12],-0.118
same,glycan array binding signal (z-score),[13],0.24
same,glycan array binding signal (z-score),[14],0.333
same,glycan array binding signal (z-score),[15],-0.084
same,glycan array binding signal (z-score),[16],-0.123
same,glycan array binding signal (z-score),[17],-0.033
same,glycan array binding signal (z-score),[18],-0.014
same,glycan array binding signal (z-score),Gal(b1-4)GlcNAc6P,-0.159
same,glycan array binding signal (z-score),Gal(b1-6)Gal,0.145
same,glycan array binding signal (z-score),Gal3S(b1-3)GalNAc,-0.141
same,glycan array binding signal (z-score),Gal3S(b1-3)GlcNAc,-0.167
same,glycan array binding signal (z-score),[19],-0.115
same,glycan array binding signal (z-score),Gal3S(b1-4)Glc,-0.151
same,glycan array binding signal (z-score),Gal3S(b1-4)Glc6S,-0.128
same,glycan array binding signal (z-score),Gal3S(b1-4)GlcNAc,-0.248
same,glycan array binding signal (z-score),[20],0.397
same,glycan array binding signal (z-score),[21],-0.185
same,glycan array binding signal (z-score),[22],-0.156
same,glycan array binding signal (z-score),Gal3S4S(b1-4)GlcNAc,-0.005
same,glycan array binding signal (z-score),Gal3S6S(b1-4)GlcNAc,-0.231
same,glycan array binding signal (z-score),Gal3S6S(b1-4)GlcNAc6S,-0.288
same,glycan array binding signal (z-score),Gal4S(b1-4)GlcNAc,-0.258
same,glycan array binding signal (z-score),Gal4S6S(b1-4)GlcNAc,-0.446
same,glycan array binding signal (z-score),Gal6P(b1-4)GlcNAc,-0.186
same,glycan array binding signal (z-score),Gal6S(b1-3)GlcNAc,0.158
same,glycan array binding signal (z-score),Gal6S(b1-3)GlcNAc6S,0.053
same,glycan array binding signal (z-score),Gal6S(b1-4)Glc,0.046
